# The campaign covered roughly 310,000 compounds. About 2,200 (0.71%) showed an effect of 50% or more. Effects have a minus sign here. Some of the results follow.
# Biological target: human ether-à-go-go-related gene (hERG) potassium channel (human, UniProt Q12809)
# Assay: primary screen, population patch clamp on CHO cells stably expressing hERG
# Chain of human ether-à-go-go-related gene (hERG) potassium channel (Q12809 whole entry, looked up): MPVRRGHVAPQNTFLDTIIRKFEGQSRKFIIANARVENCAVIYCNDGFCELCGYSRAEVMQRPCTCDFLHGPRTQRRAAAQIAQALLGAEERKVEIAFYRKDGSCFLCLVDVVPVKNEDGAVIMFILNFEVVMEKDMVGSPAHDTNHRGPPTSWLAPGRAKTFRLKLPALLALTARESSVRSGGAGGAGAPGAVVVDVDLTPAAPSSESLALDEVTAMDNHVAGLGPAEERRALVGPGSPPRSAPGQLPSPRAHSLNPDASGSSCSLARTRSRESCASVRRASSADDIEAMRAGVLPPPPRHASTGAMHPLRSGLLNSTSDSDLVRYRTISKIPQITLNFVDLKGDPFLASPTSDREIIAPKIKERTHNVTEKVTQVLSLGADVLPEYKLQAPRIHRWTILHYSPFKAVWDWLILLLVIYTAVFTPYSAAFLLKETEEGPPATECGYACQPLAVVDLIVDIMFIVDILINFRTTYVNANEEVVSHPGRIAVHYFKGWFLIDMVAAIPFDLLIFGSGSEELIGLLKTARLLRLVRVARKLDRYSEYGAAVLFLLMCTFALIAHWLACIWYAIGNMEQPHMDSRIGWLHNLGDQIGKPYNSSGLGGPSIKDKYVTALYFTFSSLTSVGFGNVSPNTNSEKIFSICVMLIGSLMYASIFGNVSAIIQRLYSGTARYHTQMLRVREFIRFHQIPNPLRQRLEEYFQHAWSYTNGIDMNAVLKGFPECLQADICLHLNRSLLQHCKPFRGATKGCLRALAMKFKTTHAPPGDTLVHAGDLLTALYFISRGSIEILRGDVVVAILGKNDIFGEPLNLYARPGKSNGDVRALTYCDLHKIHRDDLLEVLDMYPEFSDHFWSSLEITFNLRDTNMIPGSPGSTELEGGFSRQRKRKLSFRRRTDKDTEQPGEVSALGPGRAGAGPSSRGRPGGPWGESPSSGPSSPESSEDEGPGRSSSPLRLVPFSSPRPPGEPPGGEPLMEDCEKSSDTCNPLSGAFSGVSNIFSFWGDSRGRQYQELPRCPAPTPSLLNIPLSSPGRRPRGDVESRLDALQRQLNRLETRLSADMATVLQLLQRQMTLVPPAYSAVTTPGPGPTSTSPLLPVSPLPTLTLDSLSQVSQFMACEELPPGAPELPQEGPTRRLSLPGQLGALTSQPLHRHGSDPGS
row,SMILES,"hERG current change (%, negative = inhibition) at 1uM [%]"
1,O=C(CN1c2ccccc2Sc2ccccc21)NNC(=O)Nc1ccc(Cl)cc1,4.7
2,CCOc1ccc(-c2nc3c(s2)CCc2onc(-c4ccc(OC)cc4)c2-3)cc1,8.21
3,O=C(CNC(=O)c1ccc2c(c1)OCO2)Nc1cccc(Br)c1,8.98
4,Cc1ccc(C(=O)NCCc2nnc3ccc(SCC(=O)Nc4ccccc4F)nn23)cc1,12.9
5,CNc1nc(OCCNC(=O)Nc2ccccc2)nc(N2CCOCC2)n1,24.7
6,Cc1ccnc(NC(=O)Cn2c(=O)oc3cc(S(=O)(=O)N4CCCC4)ccc32)c1,12.7
7,COc1ccc(OCC(=O)Nc2ccc3c(c2)nc(CCN2CCN(C)CC2)n3C)cc1,13.3
8,O=C(Nc1ccccc1N1CCOCC1)c1cc(Br)c(Br)s1,2.27
9,O=C(Nc1ccc(CN2CCS(=O)(=O)CC2)cc1)c1ccc(Cl)cc1,-3.42
10,Cc1nc(-c2c(C(=O)NNC(=O)Nc3c(C)cccc3C)noc2C)cs1,1.34
11,CC(C)=NNc1cc([N+](=O)[O-])cc2c1C(=O)N(C)S2=O (stereo not drawn),6.37
12,COc1ccc(NC(=O)NCCCN2CCCC2=O)c(OC)c1,14.9
13,COc1cccc(NC(=O)CCCn2nc(C)c3c(C)n(-c4ccccc4)nc3c2=O)c1,7.75
14,Cc1ccc(C)c(S(=O)(=O)N2CCN(C(=O)Cc3ccc(S(=O)(=O)N4CCOCC4)s3)CC2)c1,7.6
15,Cc1cccc(OCc2nnc(SCC(=O)c3ccccc3)o2)c1,8.21
16,O=C(NCCO)c1ccc(-c2nnc(Nc3ccc(O)cc3)c3ccccc23)cc1,14.2
17,O=C1N/C(=C\c2ccsc2)C(=O)N1Cc1ccc(F)cc1,10.2
18,Cc1cc(Br)ccc1SCC(=O)NCC(c1ccco1)N1CCCCC1 (stereo not drawn),12.2
19,CCCCn1nnnc1NCc1cc(OC)c(OC)c(OC)c1,1.2
20,Cc1ccccc1C1CC(c2ccccc2)Nc2ncnn21 (stereo not drawn),7.13
21,Cc1ccc(NC(=S)Nc2cccc(S(=O)(=O)Nc3c(C)n(C)n(-c4ccccc4)c3=O)c2)cc1,11
22,O=c1c2cc(NC(=S)NC3CCN(Cc4ccccc4)CC3)ccc2nc2n1CCCCC2,-0.621

row,SMILES,"hERG current change (%, negative = inhibition) at 1uM [%]"
1,CN1CCN(C(=O)/C(C#N)=C/c2ccc(F)cc2)CC1.Cl,1.43
2,Cc1nnc(NC2CCCCC2)[nH]c1=O,7.65
3,O=C(O)/C=C/c1ccc2noc(-c3ccccc3)c2c1,11.5
4,CCCC(=O)Nn1cnc2c(c1=O)C1(CCCCC1)Cc1ccccc1-2,7.68
5,CCOC(=O)CN(C(=O)COc1nc(-c2ccccc2)cc(C)c1C#N)c1ccccc1C,9.34
6,C=CCC(C(=O)OC)(C(=O)OC)c1ccc(C(F)(F)F)cc1[N+](=O)[O-],8.67
7,CCOc1ccccc1NC1=C(Cl)C(=O)N(c2ccccc2)C1=O,11
8,COc1ccc(CCNC(=O)CCNC(=O)N2CC(=O)Nc3ccccc32)cc1,10.6
9,CC(C)c1ccc(S(=O)(=O)Nc2ccc(SC(F)F)cc2)cc1,8.05
10,CCOC(=O)c1sc(NC(=O)c2ccc(S(=O)(=O)N(C)C)cc2)nc1C,10.8
11,OCC1(Cc2ccccc2)CCCN(Cc2cnn(-c3ccccc3)c2)C1 (stereo not drawn),-27.4
12,O=C(Cc1ccccc1)Nc1ccc(Br)c(Cl)c1,9.98
13,COc1cc(-c2cc(N3C(=O)Nc4ccccc4N3O)n[nH]2)cc(OC)c1OC,4.94
14,O=C(CSc1nc2c(c(=O)[nH]1)CCCC2)Nc1ccc(Cl)cc1F,10.4
15,CC1(C)Oc2ccc(NC(=O)c3ccco3)cc2O1,-5.51
16,CCOC(=O)Cc1csc(NC(=O)CCc2ccccc2)n1,16.6
17,Cc1cc(C(=O)NC2CC(C)(C)Cc3c2cnn3-c2cccc(F)c2)nn1C (stereo not drawn),9.79
18,CC(C)c1nnc(NC(=O)C2CCCN2C(=O)Nc2ccccc2[N+](=O)[O-])s1 (stereo not drawn),-5.74
19,Cc1cccc(NC(=O)CSc2nnc(CCC(=O)Nc3ccc(C)c(Cl)c3)n2C)c1,1.62
20,Cc1cc(C(=O)CN2CCC(C)CC2)c(C)n1-c1ccc(F)cc1,2.01
21,O=C(COC(=O)CSc1ccc([N+](=O)[O-])cc1)NCCCc1ccccc1,8.4
22,Cc1ccc(NC(=O)C(C)c2ccc(-c3ccccc3)c(F)c2)cc1 (stereo not drawn),20.6

row,SMILES,"hERG current change (%, negative = inhibition) at 1uM [%]"
1,CCOc1cccc2cc(C(=O)N3CCc4ccccc43)c(=O)oc12,4.25
2,Cc1nc2c(-c3ccc(F)cc3)c(C)nn2c(C)c1CCC(=O)N1CCOCC1,-27.4
3,O=C(O/N=C1\C(=O)N(c2ccccc2)c2ccccc21)C1CC1,7.72
4,O=C(C1=C(O)C(=O)N(Cc2ccco2)C1c1cccnc1)c1cc2ccccc2o1 (stereo not drawn),16.9
5,COc1ccc(OCC(=O)Nc2cccc(-c3nc4ccccc4[nH]3)c2)cc1,-17.7
6,O=C1Nc2ccccc2S/C1=C/c1cccs1,13.4
7,CSc1nnc(C)c(=O)n1COC(=O)c1ccc(S(=O)(=O)N2CCOCC2)cc1,9.38
8,Cc1cc(C)nc(SCCn2c(N3CCOCC3)nc3c2c(=O)[nH]c(=O)n3C)n1,18.2
9,O=C(c1sc2ccccc2c1Cl)N1CCN(CCc2ccccn2)CC1,-22.5
10,O=C(N/N=C/c1cccnc1)c1ccc(F)cc1,7.02
11,COc1ccc(NC(=O)CCC(=O)N/N=C/c2ccncc2)cc1,10.6
12,CCOC(=O)Nc1ccc2c(COC(=O)CNS(=O)(=O)c3ccc(NC(C)=O)cc3)cc(=O)oc2c1,8.62
13,COc1ccc(/C=C2\COc3ccccc3C2=O)cc1OC,4.34
14,CCCC(=O)Nc1nc2ccc(C(=O)OCC)cc2s1,11.8
15,CCN(CC)S(=O)(=O)N1CCC(C(=O)NCc2ccc(C)cc2)CC1,4.89
16,COc1ccc(-c2nc3ccccc3c(=O)n2CCOc2cccc(C)c2C)cc1,15.4
17,COC(=O)CC/C(=N/Nc1ccc(Cl)c(Cl)c1)C(=O)OC,11.8
18,Cc1ccc(S(=O)(=O)N/N=C/c2ccccc2O)cc1[N+](=O)[O-],9.76
19,CCc1ccc(N2CC(C(=O)OCC(=O)Nc3ccc([N+](=O)[O-])cc3)CC2=O)cc1 (stereo not drawn),-13.7
20,O=C(c1ccc(NS(=O)(=O)c2ccc(F)cc2)cc1)N1CCC1,17
21,Cc1ccc2cc(CCNC(=O)c3cccc([N+](=O)[O-])c3)c(=O)[nH]c2c1C,-1.31
22,CC12CC3CC(C)(C1)CC(C(=O)NCc1ccncc1)(C3)C2,17.3

row,SMILES,"hERG current change (%, negative = inhibition) at 1uM [%]"
1,CCOc1ccc(NC(=O)CSc2ccc(-c3cccnc3)nn2)cc1,10.8
2,CC(C)OC(=O)C[N+](C)(C)CCN1C(=O)C2C(c3ccccc3)C=CC(c3ccccc3)C2C1=O.[Br-] (stereo not drawn),7.8
3,CCCNC(=O)N1[C@H]2CC[C@@H]1C(C(=O)OC)=C(c1ccc(S(C)(=O)=O)cc1)C2,5.86
4,Cc1ccc(/C=N/NC(=S)NC2CCCCC2)o1,7.08
5,CN(C)C1(c2nnnn2CCOC(=O)Nc2ccc(Cl)cc2)CCCCC1,1.01
6,COc1ccc(CN2CCC(CO)(Cc3ccccc3C(F)(F)F)CC2)c(F)c1,-53
7,Cc1cc(C(=O)Nc2ccccc2C(=O)O)oc1C,11
8,CCn1c(=O)n(CC)c2cc(NC(=O)c3ccccc3Cl)ccc21,18
9,Cc1cc(C)c(CN2CCC(n3nccc3NC(=O)C3CCOC3)CC2)cc1C (stereo not drawn),-0.575
10,Cc1cccc(NC(=S)NNC(=O)c2sccc2C)c1,8.19
11,Cc1c(NC(=S)NC(NC(=O)C(C)(C)C)C(Cl)(Cl)Cl)c(=O)n(-c2ccccc2)n1C (stereo not drawn),4.81
12,CC(C)(C)NC(=O)C(=O)NNC(=O)c1ccco1,11.5
13,CC1CCN(CC(=O)Nc2nc(-c3ccccc3)cs2)CC1,17.6
14,CN(Cc1cn[nH]c1-c1ccc(-c2ccccc2)cc1)CC1CCOCC1,-16.7
15,CCn1c(SCC(=O)NC2CC2)nnc1-c1ccncc1,18.1
16,Cc1ccccc1N1CCN(CCCN2C(=O)C3CCCCN3C2=O)CC1 (stereo not drawn),11.9
17,COc1cc(C2C3=C(CC(C)(C)CC3=O)N(C)C3=C2C(=O)CC(C)(C)C3)ccc1O,11.2
18,COc1cc2c(cc1OC)C(C)N(C(=O)Cn1ncc3c1-c1cc(C)ccc1OC3)CC2 (stereo not drawn),-6.14
19,NC(=O)CCSC(=S)N1CCOCC1,7.13
20,O=C(Cn1cc(C(F)(F)F)ccc1=O)N/N=C/c1ccccc1,15.1
21,CCn1c2ccccc2c2cc(NC(=O)CSc3nnc(-c4cccc(OC)c4)n3N)ccc21,-0.458

# Reference: article PMC4336329 (PLoS ONE, 2015)
